Results reported in publication PMC4336329 (PLoS ONE, 2015).
Screen size: about 310,000 compounds; about 14,000 (4.5%) showed an effect of 50% or more. The effect is printed as a negative number. The list shows a part of the results.

Molecular target: human ether-à-go-go-related gene (hERG) potassium channel (human, UniProt Q12809)
Experiment: primary screen, population patch clamp on CHO cells stably expressing hERG
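Further: peak tail current of the secondary pulse compared with the same well before compound.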

Chain of human ether-à-go-go-related gene (hERG) potassium channel (Q12809 whole entry, looked up): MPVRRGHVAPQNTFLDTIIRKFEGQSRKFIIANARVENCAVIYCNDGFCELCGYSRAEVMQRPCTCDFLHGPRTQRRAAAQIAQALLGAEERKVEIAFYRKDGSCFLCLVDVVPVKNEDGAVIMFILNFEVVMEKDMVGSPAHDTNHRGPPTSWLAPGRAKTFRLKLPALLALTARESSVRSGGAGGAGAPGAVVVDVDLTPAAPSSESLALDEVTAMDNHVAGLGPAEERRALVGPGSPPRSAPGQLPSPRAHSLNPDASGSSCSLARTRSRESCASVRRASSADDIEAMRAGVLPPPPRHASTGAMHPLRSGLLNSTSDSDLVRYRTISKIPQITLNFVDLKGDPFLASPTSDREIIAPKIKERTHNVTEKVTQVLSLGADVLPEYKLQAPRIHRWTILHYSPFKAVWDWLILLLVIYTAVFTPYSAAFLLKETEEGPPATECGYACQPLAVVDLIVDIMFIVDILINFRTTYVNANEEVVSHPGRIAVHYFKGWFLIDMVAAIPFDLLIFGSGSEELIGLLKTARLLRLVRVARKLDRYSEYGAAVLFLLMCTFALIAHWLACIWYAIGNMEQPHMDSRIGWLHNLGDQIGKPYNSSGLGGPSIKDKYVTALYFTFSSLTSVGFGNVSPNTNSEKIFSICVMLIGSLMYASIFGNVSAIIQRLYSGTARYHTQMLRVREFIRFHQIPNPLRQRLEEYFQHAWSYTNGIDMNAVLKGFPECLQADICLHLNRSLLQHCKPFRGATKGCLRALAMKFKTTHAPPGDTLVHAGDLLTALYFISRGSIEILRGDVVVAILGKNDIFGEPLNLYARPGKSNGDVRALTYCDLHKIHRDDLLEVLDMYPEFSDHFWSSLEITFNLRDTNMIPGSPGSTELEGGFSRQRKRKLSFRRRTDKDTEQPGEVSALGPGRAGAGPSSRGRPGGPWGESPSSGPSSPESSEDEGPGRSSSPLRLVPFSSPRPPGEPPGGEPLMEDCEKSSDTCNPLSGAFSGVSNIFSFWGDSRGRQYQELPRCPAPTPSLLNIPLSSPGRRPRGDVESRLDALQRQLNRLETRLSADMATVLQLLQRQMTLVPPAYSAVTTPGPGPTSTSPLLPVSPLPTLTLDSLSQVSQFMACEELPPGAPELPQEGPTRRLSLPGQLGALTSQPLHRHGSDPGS

| Structure (SMILES) | hERG current change (%, negative = inhibition) at 10uM |
| --- | --- |
| O=C(CCC1CCCN(C(=O)c2ccc3c(c2)OCO3)C1)N1CCN(c2ccccn2)CC1 (stereo not shown) | -9.38% |
| N/C(=N\OC(=O)Cc1ccccc1[N+](=O)[O-])c1cccc(Br)c1 | -2.01% |
| Clc1cccc(Nc2ncnc3c2cnn3-c2ccccc2)c1 | 5.16% |
| Cc1cc(C)n(-c2ccc(NC(=O)C3CCN(Cc4cc(C)c(C)o4)CC3)cc2)n1 | 9.12% |
| COc1ccc(/C(O)=C2/C(=O)C(=O)N(CCN3CCOCC3)C2c2cccnc2)cc1OC (stereo not shown) | 10.8% |
| CCOc1ccc(NS(=O)(=O)c2cc(C(=O)NCC3CCCO3)ccc2Cl)cc1 (stereo not shown) | 13.3% |
| COC(=O)c1c(NC(=O)Cc2cccs2)sc2c1CCC(C)C2 (stereo not shown) | 8.52% |
| O=C1OCCC1Sc1nnc(-c2ccc(Cl)cc2Cl)o1 (stereo not shown) | 0.111% |
| COc1ccccc1N(CC(=O)NC1CCCCC1)C(=O)CNC(=O)c1cccs1 | 0.928% |
| O=C(Nc1ccccc1C(=O)O)c1cc(S(=O)(=O)N2CCCCC2)cs1 | 10.1% |
| Cc1cc(C)n2nc(SCCCC(=O)c3ccccc3)nc2n1 | -4.06% |
| OC1(c2cccc(C(F)(F)F)c2)CCN(Cc2nnnn2Cc2ccccc2)CC1 | 10.4% |
| O=C(Nc1cc2cccc([N+](=O)[O-])c2oc1=O)c1cccs1 | 9.75% |
| O=C(CNC1CCCCCC1)Nc1ccc(S(=O)(=O)NC2CC2)cc1 | 1.98% |
| CCCCCCNC(=O)CC(NS(=O)(=O)c1ccc(NC(C)=O)cc1)C(C)C (stereo not shown) | -6.5% |
| CC1(C)Cc2cccc(OCC(=O)Nc3ccc(S(N)(=O)=O)cc3)c2O1 | -3.01% |
| C/C=C(\C)C(=O)Nc1cccc(C2=NOC3(C2)C[C@H](C(N)=O)N(C(=O)C(c2ccccc2)c2ccccc2)C3)c1 (stereo partly shown) | -3% |
| COc1ccc(C(C(=O)NCC2CCCO2)N(C(=O)c2snc(C(N)=O)c2N)c2ccccc2C)cc1OC (stereo not shown) | -5.76% |
| CSc1nnc(CCNS(=O)(=O)c2ccccc2Br)n1C | 9.05% |
| CC(C)(C)NC(=O)COc1coc(CN2CCN(Cc3ccccc3)CC2)cc1=O | -1.29% |
| COc1cc(C(=O)Nc2cc(C)c(OCC(=O)N3CCOCC3)c(C)c2)cc(OC)c1OC | 11.5% |
| Fc1ccc(NC(=S)N2CCCC2)cc1Cl | 8.95% |

| Structure (SMILES) | hERG current change (%, negative = inhibition) at 10uM |
| --- | --- |
| CCOC(=O)c1c(NC(=S)Nc2ccccc2)sc(C)c1C | 4.49% |
| Cc1nn(Cc2c(F)c(F)c(F)c(F)c2F)c(C)c1NC(=O)c1ccc(COc2cc(Cl)ccc2Cl)cc1 | -1.43% |
| O=S(=O)(Nc1nc2ccccc2nc1Nc1cccc(S(=O)(=O)N2CCCCC2)c1)c1ccccc1 | -2.73% |
| Cc1ccccc1C1C(C#N)=C(N)N(N(C)C)C2=C1C(=O)CC(C)(C)C2 (stereo not shown) | 3.85% |
| COc1ccc(/C=C(\C#N)C(=O)Nc2cccc3ncccc23)cc1OC.Cl | 17.6% |
| CCOC(=O)C1CCN(C(=O)c2cc(S(=O)(=O)N(C)C)ccc2N2CCCC2)CC1 | -18.6% |
| Cc1onc(-c2ccccc2)c1CNS(=O)(=O)c1cccc(Cl)c1 | -7.19% |
| CCCCOC(=O)C1=C(C)Nc2ncnn2C1c1ccc(OC)c(OC)c1OC (stereo not shown) | -18.3% |
| COc1ccc(CCNS(=O)(=O)c2cc3c4c(c2)C(C)C(=O)N4CCC3)cc1OC (stereo not shown) | 11.3% |
| CCN(CC)c1cc(C)c2cc(NC(=O)CNC(C)=O)ccc2n1 | -11.3% |
| C1CC(CN2CCOCC2)CN(c2nc3nonc3nc2N2CCSCC2)C1 (stereo not shown) | -8.62% |
| CC(C)CCNC(=O)C1CCC(=O)N1CCc1ccccc1 (stereo not shown) | 9.14% |
| CCCSc1ncc(Cl)c(C(=O)Nc2ccc(S(=O)(=O)N3CC(C)OC(C)C3)cc2)n1 (stereo not shown) | -7.92% |
| C/C(CC(=O)NC1CCCCC1)=N\NC(=O)c1ccc(Br)cc1 | -2.11% |
| CSc1ccc(/C=N/NC(=O)c2sccc2C)cc1 | 15.4% |
| CCN(CC(=O)Nc1c(F)cccc1F)C(=O)c1ccc(C#N)cc1 | 13% |
| O=C(NCCNC(=O)c1ccc(Cl)cc1Cl)c1cnccn1 | -8.98% |
| O=C(NCCc1ccccc1)C1CCN(S(=O)(=O)c2cccs2)CC1 | -2.14% |
| COC(=O)C(N)CCCCN.Cl (stereo not shown) | 16.4% |
| CS(=O)c1ccccc1COC(=O)Nc1ccccc1 (stereo not shown) | 9.76% |
| Cc1nn(C)c(C(=O)Nc2ccc3c(c2)OCO3)c1[N+](=O)[O-] | 6.98% |
